These are yes or no findings as the source states them, for the method shown.
Target: Full-length Xenopus laevis Mcm10 L104D/L108D (2D mutant), purified (Xenopus laevis) (UniProt Q5EAW4)
Experiment: AUC; sedimentation velocity, 42,000 rpm, 4°C; full-length Mcm10 1.6 mg/ml (2D mutant 1.0 mg/ml) in PBS pH 7.4, 150 mM NaCl, 0.3 mM TCEP; c(s) analysis; both purified

B1: Full-length Xenopus laevis Mcm10 L104D/L108D (2D mutant), purified (protein, UniProt Q5EAW4 1-860)
chain: MEVDADLELLTSLLEENEAAERNGVVSHEASSELDEFDELFDGDEDGSYHGSDNGTEEQTIGGVEEDFTTLFGDIDDIKEEEAAASDTKKQSSSVCQEKSKDEDEDEDRKMQAQMKKLQEQLQKTALAKTSSPGNPKKSPENKMVQSGKTSRTSPLIERKKTDSNTVAPQLTSPTVPKAKLPDAPKRKQNLSDKSPVQKKMASFLSPPEKSSARPGQSTATQPITNTLKSPVGQQYHVEKFSGLRIRKPRVSSSEMERKMNGRKLIRLAQLQNKIATEKLEEEDWVTFGVIVKKITPQSSNNGKTFSIWRLNDLKDLDKYISLFLFGDVHKEHWKTDQGTVIGLLNANPMKPKEGTDEVCLSVDNPQKVLLMGDAVDLGTCKARKKNGDPCTQMVNLNDCEYCQYHVQAQYKKVSSKRADLQSSYSGHVPKKMARGANGLRERLCQGGFHYGGVSSMAYAATLGSTTAPKKTVQSTLSNMVVRGAEAIALEARQKIAAAKNVVQTDEFKELMTLPTPGALNLKKHLSGVSPQANCGKEGQPIQSISASTLLKQQKQQMLNARKKRAEESQKRFLESTEKSEKSSTLTSSACSVFQSPKQGAEFPNAQKMATPKLGRGFAEGDDVLFFDISPPPAPKLSTSAEAKKLLAIQKLQAKGQTLAKTDPNSIKRKRGSSSEELVAQRVASHASTSPKSPDENEPAIKKHRDQLAYLESEEFQKILNAKSKHTGILKEAEVEIQEHYFDPLVKKEQLEEKMQSIREQSCRVVTCKTCKYTHFKPKETCVSENHDFHWHNGVKRFFKCPCGNRTISLDRLPKKHCSTCGLFKWERVGMLKEKTGPKLGGETLLPRGEEHGKFLNSLK
  binding: no binding (tested: 1.0 mg/ml)

— paper PMC3720919, “Mcm10 Self-Association Is Mediated by an N-Terminal Coiled-Coil Domain” (PLoS ONE, 2013)
